PubChem BioAssay AID485294 (National Center for Advancing Translational Sciences (NCATS), 2010)
In all, about 370,000 compounds went through this assay and about 150 (0.041%) were called active. This list was built around the results that the source calls inconclusive (neither active nor inactive); the mix of calls is not that of the screen. Calls follow the shape of the dose curve; as a rule, active = well fitted inhibition curve with a large enough effect; inconclusive = small, poorly fitted or top-dose-only effect; inactive = flat fitted curve, though single readings scatter. Potencies of inconclusive entries are left out as doubtful fits.

The compounds below were run against Beta-lactamase (Escherichia coli (strain K12)) (UniProt P00811) (assay: qHTS Inhibitors of AmpC Beta-Lactamase (assay with detergent)). Details: AmpC hydrolysis of nitrocefin, absorbance 480 nm, 0.01% Triton; activity change, negative = inhibition: at 114 µM (top of the series).
Chain of UniProt P00811 (P00811 whole entry, looked up): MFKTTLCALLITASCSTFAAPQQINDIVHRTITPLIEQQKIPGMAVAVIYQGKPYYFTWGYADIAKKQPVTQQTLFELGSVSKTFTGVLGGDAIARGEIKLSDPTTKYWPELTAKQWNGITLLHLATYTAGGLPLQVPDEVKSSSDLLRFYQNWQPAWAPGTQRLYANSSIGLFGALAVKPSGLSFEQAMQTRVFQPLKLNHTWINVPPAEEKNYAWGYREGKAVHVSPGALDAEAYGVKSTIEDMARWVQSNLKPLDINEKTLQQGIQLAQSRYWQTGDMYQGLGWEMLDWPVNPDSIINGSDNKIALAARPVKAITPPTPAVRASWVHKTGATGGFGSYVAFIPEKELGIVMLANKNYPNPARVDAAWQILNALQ
Outline: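 20 mM phosphate pH 7.0 + 0.01% (detergent screen) or 0.0001% Triton X-100; 5.3 nM AmpC reagent; cpd preinc 15 min RT; nitrocefin (800 uM stock) to start; A480 q20 s × 4 min; Activity was normalised to no-enzyme and no-compound control wells.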
Also: nearly all actives have a fitted effect of over 25% in size.
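For activity change, negative = inhibition in this document: 0% = no-compound wells and -100% = no-enzyme wells.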
Potency is read from the fitted curve at half-maximal effect; tags tell the direction and shape of the fitted curve.

SMILES | Potency | activity change, negative = inhibition
Cn1c(Cc2csc(N)n2)nnc1SCC(=O)NC1CCCCC1 | inconclusive [inhibitor, single point] | –
CN(C)C(=O)c1cccn(Cc2ccc(C(F)(F)F)cc2)c1=O | inconclusive [inhibitor, single point] | –
COc1ccc2nc(SCC(=O)NN)cc(C)c2c1 | inconclusive [inhibitor, full curve, poor fit] | –
COP(=O)(/C=C/c1ccccc1)C(O)c1ccc(F)cc1 (stereo unspecified) | inconclusive [inhibitor, full curve, poor fit] | –
CC(C)(C)c1nc(N2CCN(C(=O)c3ccco3)CC2)c2nnn(Cc3ccccc3)c2n1 | inconclusive [inhibitor, full curve] | –
CC(=O)c1ccc(NS(=O)(=O)c2ccc3ccccc3c2)cc1 | inconclusive [inhibitor, single point] | –
O=C1CCCN1CCC1CCN(C(=S)Nc2ccc(F)cc2)CC1 | inconclusive [inhibitor, full curve, poor fit] | –
Cc1ccc(S(=O)(=O)N2CCOCC2)cc1NC(=O)COC(=O)Cc1cccs1 | inconclusive [inhibitor, partial curve, poor fit] | –
O=C(CSc1nc2[nH]ncc2c(=O)n1-c1ccccc1Br)NCc1ccco1 | – | inactive: 6.44%
Cc1onc(-c2ccccc2)c1C(=O)Nc1ccnn1C1CCCCC1 | inconclusive [inhibitor, full curve, poor fit] | –
O=C(CCc1c[nH]c2ccccc12)NCC(=O)Nc1ccc(F)c(F)c1F | inconclusive [inhibitor, full curve] | –
O=C(COC(=O)c1cccc(Cl)c1)Nc1ccc2[nH]c(=O)[nH]c2c1 | inconclusive [inhibitor, partial curve, poor fit] | –
NC(=S)N/N=C/c1ccc(C23CC4CC(CC(C4)C2)C3)cc1 | inconclusive [inhibitor, partial curve, poor fit] | –
CC(C)(C)n1nnnc1C(c1cccs1)N(Cc1cccnc1)Cc1ccccc1Cl (stereo unspecified) | – | inactive: -9.75%
CCCCCCCCCCCCCCCC[N+](C)(C)CCN(Cc1ccc(OC)cc1)c1ncccn1 | inconclusive [inhibitor, full curve, poor fit] | –
O=C(Nc1nc(-c2ccc(F)cc2)cs1)c1cnccn1 | inconclusive [inhibitor, full curve] | –
CN1CCN(C(=O)CCc2ccc(S(=O)(=O)NC3CCCCC3)cc2)CC1 | inconclusive [inhibitor, partial curve] | –
CCn1cc(/C=C/C(=O)Nc2ccn(Cc3c(F)c(F)cc(F)c3F)n2)cn1 | inconclusive [inhibitor, partial curve, poor fit] | –
CN=C1CC(SC)=C1c1ccc(C)cc1 | inconclusive [inhibitor, single point] | –
CCOC(=O)Cc1csc(NC(=O)COc2ccc(OC)cc2)n1 | inconclusive [inhibitor, full curve] | –
CC(=O)Nc1ccc(S(=O)(=O)N2CCC(NC(C)=O)(c3cccc(F)c3)CC2)cc1 | inconclusive [inhibitor, full curve, poor fit] | –

SMILES | Potency | activity change, negative = inhibition
C=CCNC(=O)c1ccccc1NS(=O)(=O)c1ccc(OC)c(C(=O)N2CCOCC2)c1 | inconclusive [inhibitor, full curve, poor fit] | –
COc1ccc(C(O)c2nc3ccccc3s2)cc1 (stereo unspecified) | inconclusive [inhibitor, full curve, poor fit] | –
O=c1oc2cc(Cl)ccc2n1CSc1nc2ccccc2s1 | – | inactive: -0.918%
Cc1ccc(-n2c(SCC(=O)N/N=C/c3c(C)nn(-c4ccccc4)c3C)nc3ccccc3c2=O)cc1 | inconclusive [inhibitor, full curve, poor fit] | –
CC(=O)N1CCOc2cc(S(=O)(=O)Nc3cccc(C(F)(F)F)c3)c(Cl)cc21 | – | inactive: 26.1%
CC1(NC(=O)CCc2nc3sc4c(c3c(=O)[nH]2)CCCC4)CCS(=O)(=O)C1 (stereo unspecified) | inconclusive [inhibitor, full curve, poor fit] | –
CCOC(=O)c1ccccc1NC(=O)C(=O)Nc1ccc2nc3n(c(=O)c2c1)CCCCC3 | – | inactive: 19.9%
COc1cc(NC(=O)NC2Cc3ccccc3C2)cc(OC)c1 | – | inactive: -7.86%
COCCNC(=O)C(NC(=O)C1CCCCC1)C12CC3CC(CC(C3)C1)C2 (stereo unspecified) | – | inactive: -0.341%
CC(C)NC(=O)C1CCCN(c2nnc(-n3cccc3)s2)C1 (stereo unspecified) | inconclusive [inhibitor, full curve, poor fit] | –
O=C(NCCOC(=O)c1ccc(C(=O)OCCNC(=O)c2ccccc2)o1)c1ccccc1 | inconclusive [inhibitor, full curve, poor fit] | –
CCOC(=O)N1CCN(C(=O)c2ccccc2NC(=O)c2ccccc2Cl)CC1 | – | inactive: -0.59%
CCCC(=O)NCCc1cc2ccc(C)c(C)c2[nH]c1=O | inconclusive [inhibitor, single point] | –
COc1cccc(NC(=O)C2C3CCC4C(CCC32)C4(Cl)Cl)c1 (stereo unspecified) | – | inactive: -9.08%
O=C(Cn1cnc2ccccc2c1=O)NCCC(=O)N1CCC2(CC1)OCCO2 | inconclusive [inhibitor, single point] | –
CC(Nc1nc(N2CCN(S(C)(=O)=O)CC2)nc2ccccc12)c1ccccc1 (stereo unspecified) | inconclusive [inhibitor, partial curve] | –
COc1ccc(-c2cc3c(=O)n(CC(=O)N4CCCCC4)ncn3n2)cc1 | – | inactive: -6.06%
CCN(CC(=O)Nc1ccc2c(c1)OCCO2)C(=O)c1ccc(C(F)(F)F)cc1 | inconclusive [inhibitor, single point] | –
CS(=O)(=O)N(CC(=O)Nc1ccccc1C(=O)N1CCOCC1)c1ccc2c(c1)OCO2 | inconclusive [inhibitor, single point] | –
CC(C)NS(=O)(=O)c1ccc2c(c1)NCC2 | inconclusive [inhibitor, partial curve] | –
